{
  "source": "patent US12285428B2",
  "about": "(IMBRIA PHARMACEUTICALS, INC., priority 2021, dated 2025)",
  "key": {"healthy subjects [1]": {"tested_on": "healthy subjects", "experiment": "FIH study, single-dose MR part: safety and tolerability", "type": "in vivo, human", "from_the_text": "In the single-dose MR part, 1 group of 12 healthy subjects (all on active drug) was included. […] The MR formulation of IMB-1018972 to be administered on Day 13 under fed conditions was 1 of the 4 MR formulations administered on Days 1, 4, 7, and 10 under fasted conditions."}, "healthy subjects [2]": {"tested_on": "healthy subjects", "experiment": "FIH study, multiple-dose MR part: safety and tolerability", "type": "in vivo, human", "details": "5-day 200 mg 8-hour MR formulation of IMB-1018972 q12h, fed", "from_the_text": "In the multiple-dose MR part, 1 group of 12 healthy subjects (all on active drug) was included."}, "[3]": {"details": "50 mg 8-hour MR formulation of IMB-1018972, fasted"}, "[4]": {"details": "200 mg 8-hour MR formulation of IMB-1018972, fasted"}, "[5]": {"details": "200 mg 8-hour MR formulation of IMB-1018972, fed"}},
  "data": [
    {"smiles": "COc1ccc(CN2CCN(CCOC(=O)c3cccnc3)CC2)c(OC)c1OC", "note": "[IMB-1018972, 2-[4-[(2,3,4-trimethoxyphenyl)methyl]piperazin-1-yl]ethyl pyridine-3-carboxylate]", "values": [
      {"measurement": "Number of TEAEs", "setting": "healthy subjects [1]; [3]", "result": 6},
      {"measurement": "Subjects reporting TEAEs", "setting": "healthy subjects [1]; [3]", "result": 33.3, "unit": "%"},
      {"measurement": "Number of TEAEs", "setting": "healthy subjects [1]; [4]", "result": 6},
      {"measurement": "Subjects reporting TEAEs", "setting": "healthy subjects [1]; [4]", "result": 41.7, "unit": "%"},
      {"measurement": "Number of TEAEs", "setting": "healthy subjects [1]; [5]", "result": 5},
      {"measurement": "Subjects reporting TEAEs", "setting": "healthy subjects [1]; [5]", "result": 18.2, "unit": "%"},
      {"measurement": "Drug-related TEAEs", "setting": "healthy subjects [1]; following the 200 mg 8-hour MR formulation of IMB-1018972, fed", "result": "No drug-related TEAEs"},
      {"measurement": "Tolerability", "setting": "healthy subjects [2]", "result": "well tolerated"}
    ]}
  ]
}
